# Measured values as given in publication PMC4336329 (PLoS ONE, 2015).
# About 2,200 (0.71%) of roughly 310,000 compounds showed an effect of 50% or more. The effect is printed as a negative number. This is one part of the list.
# Target: human ether-à-go-go-related gene (hERG) potassium channel (human, UniProt Q12809)
# Experiment: primary screen, population patch clamp on CHO cells stably expressing hERG
# Sequence of human ether-à-go-go-related gene (hERG) potassium channel (Q12809 whole entry, looked up): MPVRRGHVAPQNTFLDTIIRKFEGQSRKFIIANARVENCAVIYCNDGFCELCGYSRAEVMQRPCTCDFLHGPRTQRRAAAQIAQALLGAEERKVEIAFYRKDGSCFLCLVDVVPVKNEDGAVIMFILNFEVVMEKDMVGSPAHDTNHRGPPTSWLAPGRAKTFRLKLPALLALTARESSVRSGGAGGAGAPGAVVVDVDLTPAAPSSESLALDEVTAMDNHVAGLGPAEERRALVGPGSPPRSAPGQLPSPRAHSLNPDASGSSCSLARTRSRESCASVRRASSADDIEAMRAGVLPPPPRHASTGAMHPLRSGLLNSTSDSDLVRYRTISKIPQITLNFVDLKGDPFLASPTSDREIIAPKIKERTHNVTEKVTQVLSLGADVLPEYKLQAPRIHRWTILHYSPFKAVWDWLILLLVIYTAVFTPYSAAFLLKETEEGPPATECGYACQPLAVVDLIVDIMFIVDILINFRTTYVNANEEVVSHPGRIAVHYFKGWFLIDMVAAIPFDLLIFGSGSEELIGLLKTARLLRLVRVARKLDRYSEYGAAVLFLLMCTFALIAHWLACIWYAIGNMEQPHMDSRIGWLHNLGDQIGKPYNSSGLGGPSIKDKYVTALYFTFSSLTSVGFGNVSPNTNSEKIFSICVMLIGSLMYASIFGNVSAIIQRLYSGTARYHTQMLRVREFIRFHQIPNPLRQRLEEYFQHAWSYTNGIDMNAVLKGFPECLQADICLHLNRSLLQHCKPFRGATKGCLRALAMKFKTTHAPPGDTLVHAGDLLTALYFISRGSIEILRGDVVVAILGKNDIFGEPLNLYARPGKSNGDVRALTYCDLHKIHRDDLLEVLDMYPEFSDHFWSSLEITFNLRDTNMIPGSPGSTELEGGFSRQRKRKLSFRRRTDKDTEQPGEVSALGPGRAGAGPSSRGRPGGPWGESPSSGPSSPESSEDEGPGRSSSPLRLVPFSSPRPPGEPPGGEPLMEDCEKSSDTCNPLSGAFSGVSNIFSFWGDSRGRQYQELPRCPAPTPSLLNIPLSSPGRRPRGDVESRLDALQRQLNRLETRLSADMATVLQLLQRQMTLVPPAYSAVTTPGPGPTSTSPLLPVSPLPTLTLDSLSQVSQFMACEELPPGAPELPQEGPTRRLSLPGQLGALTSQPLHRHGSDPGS
row,Structure (SMILES),"hERG current change (%, negative = inhibition) at 1uM"
1,O=C(COC(=O)c1ccc(Cl)nc1)NC(=O)c1ccc(OC(F)F)cc1,-6%
2,O=C(COC(=O)CNC(=O)c1ccc(Cl)c([N+](=O)[O-])c1)NNC(=O)c1cccs1,16.6%
3,CC1(C)CN=C(NCc2ccccc2Cl)S1,-11.3%
4,Cc1onc(-c2ccccc2Cl)c1C(=O)NCc1ccccc1,18.2%
5,COc1cc(CN2CCC(C(=O)N3CCCC(C)C3)CC2)cc(OC)c1O.O=C(O)C(=O)O (stereo not shown),10.5%
6,CC1CCN(CCCNC(=O)CN2C(=O)CSc3ccc(S(=O)(=O)N4CCC(C)CC4)cc32)CC1,-13.9%
7,O=C(NNS(=O)(=O)c1ccc(Cl)cc1)NC1CCCCC1,8.84%
8,COC(=O)c1cc(C#N)c(NCc2ccccc2)nc1C,-2.99%
9,NC(=O)c1ccc(NC(=O)COC(=O)CC(NC(=O)c2ccccc2Cl)c2ccccc2)cc1 (stereo not shown),8.54%
10,CCCCCCC#Cc1cncc(C(=O)NNC(=O)Nc2cc(Cl)cc(Cl)c2)c1,13.8%
11,Cc1ccc(/C=N/NC(=O)CNC(=O)c2ccc(C)c([N+](=O)[O-])c2)o1,10.3%
12,O=C(Nc1ccc(Cl)cc1)Nc1ccc(C(=O)N2CCOCC2)cc1,1.18%
13,CCc1nc(SCC(=O)Nc2ccccc2)c2c(=O)n(C)c(=O)n(C)c2n1,8.29%
14,O=C(/C=C/c1ccc(F)cc1)OCC(=O)c1ccc[nH]1,7.97%
15,CC1=CC2=NC(=O)CC(C)(C(=O)N(CC(=O)NC3CCCC3)c3ccccc3C)N2C=C1 (stereo not shown),11.9%
16,CN1C(=O)C(=Cc2ccc(N3CCOCC3)o2)C(=O)N(C)C1=S,-3.23%
17,CCOC(=O)c1ccc(N2C(=O)c3n[nH]c(-c4ccco4)c3C2c2ccc([N+](=O)[O-])cc2)cc1 (stereo not shown),1.49%
18,Cc1cc(C)cc(NC(=O)c2cc(=O)c3ccccc3o2)c1,12.3%
19,O=C(COc1ccccc1)Nc1ccc(S(=O)(=O)NCc2ccco2)cc1,-4.21%
20,Cc1ccc(NC(=O)COC(=O)c2ccc(CN3CCCC3=O)cc2)c(Cl)c1,18.5%
21,CC(C)OCCCNC(=O)Cc1ccc(F)cc1,7.06%
22,COc1cccc(NC(=O)Cn2nnc(C(=O)NCc3ccc4c(c3)OCO4)c2N)c1,13%

row,Structure (SMILES),"hERG current change (%, negative = inhibition) at 1uM"
1,C/C(=N\NC(=O)c1cc(-c2ccc(O)cc2)nc2ccccc12)c1cccnc1,5.94%
2,O=C(NC(=S)Nc1ccc(S(=O)(=O)N2CCCCC2)cc1)c1ccc(Cl)cc1,14.3%
3,CC(C)C(OC(=O)c1nsc(Cl)c1Cl)C(=O)NC(C)(C)C (stereo not shown),8.79%
4,Nc1nc(-c2ccc(Br)cc2)cc(C(F)(F)F)n1,18.4%
5,CC(C)[C@H](NC(=O)c1ccccc1)C(=O)OCC(=O)NCCc1ccc(F)cc1,-7.04%
6,COc1ccc(CNc2nc3c(c(=O)n(Cc4ccc(Cl)cc4)c(=O)n3C)n2C)cc1,10.8%
7,O=C(Cc1ccccc1)NN1C(=O)/C(=C/c2ccccc2C(=O)O)SC1=S,2.93%
8,COc1cc(C2C(C(=O)c3ccco3)=C(O)C(=O)N2CC2CCCO2)ccc1O (stereo not shown),8.5%
9,COc1cc(/C=C/CO)cc(OC)c1OC/C=C(\C)CCC=C(C)C,11.7%
10,C/C(CC(=O)Nc1cc(C)ccn1)=N\NC(=O)c1ccc(C)cc1,-0.18%
11,CC1(C)N=C(C(=O)c2ccccc2)N(O)C1(C)O (stereo not shown),9.63%
12,Cc1[nH]c(=O)[nH]c(=O)c1N(C)C,7.28%
13,COc1ccc(CN2CC(C(=O)NCC3CCCO3)CC2=O)cc1 (stereo not shown),-7.82%
14,COc1ccc(Cn2ccnc2SCC(=O)NC2CCCCC2)cc1,10.9%
15,CCn1nnnc1SCC(=O)Nc1nnc(C(C)C)s1,9.84%
16,O=C(COc1ccc2c3c(c(=O)oc2c1)CCCC3)NCc1cccnc1,-0.207%
17,c1ccc(-c2csc(-c3cccnc3)n2)cc1,11.6%
18,Clc1ccccc1Nc1nc(-c2ccncc2)nc2ccccc12,6.68%
19,CCCCOC(=O)n1c(=O)oc2ccc(S(=O)(=O)N3CCCCC3)cc21,5.13%
20,Clc1ccccc1-c1nc2ccccc2c2nc3ccccc3n12,3.2%
21,COc1cc(OC)c2c(-c3ccccc3)cc(=O)oc2c1C(CCN1CCN(c2ccccc2)CC1)c1ccc(N(C)C)cc1 (stereo not shown),7.25%
22,CCN(CC(=O)NC1CCS(=O)(=O)C1)S(=O)(=O)c1cc(Br)ccc1Br (stereo not shown),5.34%

row,Structure (SMILES),"hERG current change (%, negative = inhibition) at 1uM"
1,FC(F)(F)c1ccc(-n2cn[nH]c2=S)cc1,13.1%
2,Cc1cc(=O)[nH]c(SCCOc2cccc(C(F)(F)F)c2)n1,13.2%
3,Cc1cccc(CN2CCN(C(c3ccccc3)c3ccc(Cl)cc3)CC2)c1.Cl (stereo not shown),20.5%
4,O=C(NCCC1CC1(Cl)Cl)c1ccc([N+](=O)[O-])cc1 (stereo not shown),-1.07%
5,CCOc1ccc(C(=O)N[C@H](C(=O)Nc2ccccc2OC)C(C)C)cc1,8.93%
6,O=C(NC1CCCC1)C(c1cccnc1)N(Cc1ccccc1F)C(=O)c1csnn1 (stereo not shown),9.57%
7,CCCC(=O)N(c1ccc2oc(=O)sc2c1)S(=O)(=O)c1ccccc1,9.92%
8,Nc1nc(SCC(=O)Nc2ccccc2Oc2ccccc2)n[nH]1,10.4%
9,Cc1c(C(=O)NCc2ccc3c(c2)OCO3)sc2nc(-c3ccc(F)cc3)cn12,14.7%
10,O=C(c1ccc2ccccc2c1)C1CCCN(C(=O)c2cccnc2)C1 (stereo not shown),9.32%
11,Cc1ccc(S(=O)(=O)N(C)C)cc1NC(=O)c1c(-c2c(F)cccc2Cl)noc1C,7.98%
12,O=C(N/N=C/c1ccoc1)c1ccccc1O,8.4%
13,O=C(CCN1C(=O)/C(=C/c2cccs2)SC1=S)Nc1ccccc1O,8.15%
14,CN(C)N1C(N)=C(C#N)C(c2ccccc2)C2=C1CCCC2=O (stereo not shown),5.28%
15,Cc1nc2ccccc2cc1C(=O)O,17.7%
16,COc1ccc(CCNc2oc(-c3ccc(OC)c(OC)c3)nc2P(=O)(OC)OC)cc1OC,5.48%
17,CCN(CC)CCCNC(=O)CCc1ccccc1,9.18%
18,Cc1ccc(S(=O)(=O)N(C)C)cc1NC(=O)C1Cc2ccccc2CN1C(=O)c1ccco1 (stereo not shown),6.76%
19,CC(C)=CC(=O)NCCc1ccccc1,-3.6%
20,C=CCNCc1ccccc1[N+](=O)[O-],12.7%
21,C=COCCNC(=O)Nc1ccc(Cl)c(Cl)c1,11.3%
22,CCc1nnc(NC(=O)CSc2nc3[nH]ncc3c(=O)[nH]2)s1,17%

row,Structure (SMILES),"hERG current change (%, negative = inhibition) at 1uM"
1,Cn1c(=O)[nH]c(=O)c2c1nc(N1CCCCC1)n2CCCSc1nnnn1-c1ccccc1,-10.6%
2,CCOc1cc(Cl)c(S(=O)(=O)NCCCn2ccnc2)cc1Cl,-10.7%
3,O=C(NCc1ccc(Cl)cc1)C1CCN(S(=O)(=O)N2CCOCC2)CC1,-5.66%
4,Cc1nc2sc(C(c3ccccc3)N3CCC(O)CC3)c(O)n2n1 (stereo not shown),3.91%
5,COc1cccc(NC(=O)/C=C/c2ccco2)c1,4.27%
6,CC(=O)c1cccc(NS(=O)(=O)c2c(C(=O)N3CCOCC3)c(C)n(C)c2C)c1,8.62%
7,Cc1cc(O)c(-c2cc(C(=O)Nc3sc4c(c3C(=O)NCc3ccco3)CCC4)[nH]n2)cc1C,21.9%
8,CCOC(=O)c1cnc2ccc(OCC)cc2c1NCc1ccccc1OC,14.2%
9,O=C(CSc1nnc(CNC(=O)c2ccco2)o1)c1ccccc1,10.2%
10,COc1ccc(-c2csc(NC(=O)CSc3n[nH]c(C)n3)n2)cc1,16.6%
11,O=C(Cc1n[nH]c(=O)c2ccccc12)Nc1cccc(S(=O)(=O)N2CCCCCC2)c1,5.7%
12,Cc1ccc(S(=O)(=O)N2CCCN(C)CC2)cc1.Cl,15.4%
13,COC(=O)CC1=NN(c2ccccc2)C(=O)C1,9.68%
14,CCCCOCCCn1c(N)c(C(=O)OC(C)COC)c2nc3ccccc3nc21 (stereo not shown),11.6%
15,Cc1cccc(NCCNc2cccc(C)c2)c1,23.2%
16,CC(=O)Nc1ccc(C(=O)OCCCOC(=O)c2ccc(NC(C)=O)cc2)cc1,0.0424%
17,COc1ccc(C2NN=C(c3c[nH]c4ccccc34)C2O)cc1 (stereo not shown),12.2%
18,COc1cc(CNCCc2c[nH]c3ccccc23)ccc1OCc1ccc(F)cc1.Cl,-4.82%
19,C[C@@H](NC(=O)[C@@H]1Cc2ccccc2CN1C(=O)OC(C)(C)C)C(=O)NC1CCCCC1,1.73%
20,CCCc1cc(=O)[nH]c(SCC(=O)N2CCc3cc(OC)c(OC)cc3C2)n1,12.4%
21,CC(C)c1nnc(NC(=O)CCC(=O)NCc2ccccc2Cl)s1,7.3%
22,O=C1C2CCCCN2C(=O)N1CCN1CCN(c2ccc([N+](=O)[O-])cc2)CC1 (stereo not shown),-69.7%
